Data: PubChem BioAssay AID1345083 (National Center for Advancing Translational Sciences (NCATS), 2018)
In all, about 94,000 compounds went through this assay and about 6,200 (6.6%) were called active. Inconclusive means that the source gave no clear call. Such entries were picked first, then a sample of the others. The call rests on the fitted dose curve; in most records, active means well fitted inhibition curve with a large enough effect; inconclusive means small, poorly fitted or top-dose-only effect; inactive means flat fitted curve, though single readings scatter. A potency beside an inconclusive call is a rough fit, not a confirmed value.

Assay: Cytotoxic Profiling in HEK 293 Cell Line of Diverse Libraries Using Quantitative High-Throughput Screening; further: nearly all actives have a fitted effect of over 60% in size
Details: HEK 293 viability, ATP luminescence (CellTiter-Glo), 48-72 h; series mostly up to 115 µM
Summary of the method: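 Cytotoxicity was scored by loss of ATP-coupled luminescence (CellTiter-Glo) in HEK 293 cells. Compound treatment ran 48 or 72 hr at 37 degree Celsius, 5% CO2, 95% humidity.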
Potency means the concentration at half of the fitted maximal effect; tags describe the fitted curve by direction and shape.

Row | Compound | Potency
1 | COCCN1C(=O)c2ccccc2C(C(=O)Nc2cc(C)ccc2OC)C12CCCCC2 (centres undefined) | inconclusive: 89.1 µM [inhibitor, single point]
2 | CCC1=C(C(=O)OC)C(c2ccccc2F)N2C(CC(=O)N3CCCC3)=CSC2=N1 (centres undefined) | inactive
3 | CNC(=O)CCn1ncc2cc(OCc3ccccc3-c3ccc(F)cc3OC)ccc21 | inconclusive: 89.1 µM [inhibitor, partial curve, poor fit]
4 | CC(C)CN1C(=O)c2cccn2CC1CNC(=O)C1(c2ccccc2)CC1 (centres undefined) | inconclusive: 50.1 µM [inhibitor, partial curve, poor fit]
5 | Cc1cc(NC(=O)Cn2c(-c3cccc(Cl)c3)nc(C)c(CCO)c2=O)no1 | inconclusive: 89.1 µM [inhibitor, single point]
6 | O=C(NC[C@H]1Cn2c(-c3ccc(F)cc3)cnc2CO1)c1ccc(Cl)cc1 | active: 89.1 µM
7 | Cc1nc(-c2cnccn2)n(CC(=O)Nc2cccc(F)c2)c(=O)c1CCO | inconclusive: 50.1 µM [inhibitor, partial curve, poor fit]
8 | CC1=C[C@@H](CN2CCC(C(N)=O)CC2)[C@H](C(C)C)C[C@H]1Cc1nnc(-c2ccccc2F)o1 | inconclusive: 79.4 µM [inhibitor, partial curve]
9 | CCc1ccc(CNC(=O)c2cc3c(N4CCSCC4)nc(C)cn3n2)cc1 | inconclusive: 89.1 µM [inhibitor, single point]
10 | O=C(NCC1CCCO1)N1CCCCCCn2c(nnc2-c2ccc(F)cc2)CC1 (centres undefined) | inconclusive: 89.1 µM [inhibitor, partial curve, poor fit]
11 | CCN1c2cc(C(=O)Nc3ccc(-n4ccnc4)cc3)ccc2C(=O)N2CCCCCC21 (centres undefined) | inconclusive: 50.1 µM [inhibitor, partial curve, poor fit]
12 | O=C(Nc1cccnc1)c1nc2c(o1)CCN(Cc1ccc(F)cc1F)CC2 | inconclusive: 56.2 µM [inhibitor, partial curve, poor fit]
13 | CC1=C[C@@H](CNCc2ccccn2)[C@H](C(C)C)C[C@H]1Cc1nnc(-c2ccccc2)o1 | active: 79.4 µM
14 | Cc1cc(C)cc(-c2ccc(CN3CCCC(NC(=O)c4cccnc4)C3)cc2)c1 (centres undefined) | active: 20 µM
15 | O=C(c1ccc(F)cc1)N1CCC2(CC1)CN(Cc1ccccc1)CC2CO (centres undefined) | inconclusive: 50.1 µM [inhibitor, partial curve, poor fit]
16 | CC1(C(=O)N2CCN(Cc3ccccc3)CC2)CCOCC1 | inactive
17 | COc1ccc(-c2cn3cc(C(=O)NCC4CC4)nc3s2)cc1 | active: 63.1 µM
18 | Cc1noc(C)c1[S+](=O)([O-])N1CCCN(c2ccc3nnc(C4CC4)n3n2)CC1 | inconclusive: 79.4 µM [inhibitor, partial curve]
19 | OC1CN(Cc2ccccc2)CCN(C2CCN(c3ccccc3F)CC2)C1 (centres undefined) | inconclusive: 89.1 µM [inhibitor, single point]
20 | COc1ccccc1Nc1ccnc(N2CCN(C(=O)c3ccc(C)cc3)CC2)n1 | inconclusive: 50.1 µM [inhibitor, full curve, poor fit]
21 | O=C(O)CCNC(=O)N1CCCC(c2cccc(C(=O)O)c2)C1 (centres undefined) | inactive
22 | O=C(NCC1CN(Cc2ccncc2)CC12CN(c1ccccc1)C2)Nc1ccccc1 (centres undefined) | inconclusive: 100 µM [inhibitor, partial curve, poor fit]

Row | Compound | Potency
23 | COc1ccc(-c2cc(C[C@H]3CNCC[C@H]3CC(=O)NCc3cccnc3)no2)cc1 | inactive
24 | Cn1ncc2c(C(=O)NCCCc3ccccc3)cc(-c3ccc(C(F)(F)F)cc3)nc21 | inconclusive: 31.6 µM [inhibitor, partial curve, poor fit]
25 | Cc1ccc(CNC(=O)CCc2nc(C3CCCN3C(=O)c3ccccc3)no2)o1 (centres undefined) | inactive
26 | O=C(C(=O)N1CCC(c2cc(Cc3ccccc3)[nH]n2)CC1)c1cccnc1 | inconclusive: 56.2 µM [inhibitor, partial curve, poor fit]
27 | O=C(C1CCCN(Cc2cccc(-c3ccc(F)cc3F)c2)C1)N1CCOCC1 (centres undefined) | inconclusive: 89.1 µM [inhibitor, partial curve, poor fit]
28 | CCC(C)NC(=O)c1ccc(-c2ccc(OC)nn2)cc1Cl (centres undefined) | inconclusive: 126 µM [inhibitor, single point]
29 | O=C(Cn1nc2c(cc1=O)CCCCC2)N1CCN(Cc2ccccc2Cl)CC1 | inconclusive: 89.1 µM [inhibitor, single point]
30 | O=S(=O)(c1ccccc1)N1CCC(F)(c2nc(-c3ccncc3)no2)CC1 | active: 31.6 µM
31 | CCNC(=O)CCc1c(CC)nn(-c2ccc(F)cc2)c1Oc1ccccc1 | inconclusive: 56.2 µM [inhibitor, partial curve, poor fit]
32 | CC(C)(C)CC(=O)N1CCN2C(=O)c3cc(Br)ccc3NC(=O)[C@H]2C1 | inconclusive: 126 µM [inhibitor, single point]
33 | Cc1noc(C)c1[S+](=O)([O-])NCCNC(=O)c1ccc(-c2cccc(C(F)(F)F)c2)cc1 | inconclusive: 31.6 µM [inhibitor, partial curve, poor fit]
34 | CS(=O)(=O)N1CCC(Cc2ccc(C(=O)NCc3ccc(F)cc3)cc2)CC1 | inconclusive: 12.6 µM [inhibitor, full curve]
35 | COc1cccc(CN2CCc3c(cc(C(=O)Nc4ccccc4OC)n3C)C2)c1 | active: 39.8 µM
36 | Cc1ccc(NC(=O)Cn2ccn3nc(-c4ccc(F)cc4)c(CO)c3c2=O)cc1Cl | inconclusive: 44.7 µM [inhibitor, partial curve, poor fit]
37 | COc1ccc(CN2CCc3oc(C)c(C(=O)N4CCCCCC4)c3C2)cc1 | inconclusive: 89.1 µM [inhibitor, partial curve, poor fit]
38 | COc1ccc(-c2cc(C(=O)NC3CC3)c3c(C4CCNCC4)noc3n2)cc1 | inconclusive: 50.1 µM [inhibitor, partial curve, poor fit]
39 | Cc1nn(C(=O)CCC(=O)N2CCC(C)(c3noc(C4CC4)n3)CC2)c2ccccc12 | inconclusive: 89.1 µM [inhibitor, single point]
40 | COc1ccc(CNC(=O)C2CCN(c3nccc(Nc4ccccc4OC)n3)CC2)cc1 | inconclusive: 28.2 µM [inhibitor, partial curve]
41 | CCn1nccc1C(=O)N1CC(c2nc(CCOCC3CC3)no2)C1 | inactive
42 | C#CCOc1ccccc1CN1CCN(c2ncc(F)cn2)CC1 | inconclusive: 56.2 µM [inhibitor, partial curve, poor fit]
43 | O=C(c1ccccc1Cl)N1CCN(c2cc(-c3ccc(Cl)cc3)[nH]n2)CC1 | inconclusive: 28.2 µM [inhibitor, partial curve, poor fit]
44 | O=[S+]([O-])(Nc1cc(-c2ccccn2)nn1-c1ccccc1)c1ccccc1 | inactive

Row | Compound | Potency
45 | O=C(NC1CCCC1)c1ccc(-c2ccc(N3CCSCC3)nc2)cc1 | inconclusive: 89.1 µM [inhibitor, single point]
46 | O=C(NC1CCN(c2cc(-c3cccs3)[nH]n2)C1)c1ccccn1 (centres undefined) | inconclusive: 79.4 µM [inhibitor, single point]
47 | CCOc1ccccc1CN1CCC2(CCN(Cc3cncs3)CC2)Oc2ccccc21 | active: 44.7 µM
48 | O=C1COc2ccc(OCc3cncs3)nc2CN1Cc1ccc(F)cc1 | active: 112 µM
49 | COc1cccc(CNC(=O)c2cc(-c3c(C)cccc3C)nc3c2cnn3C)c1 | inconclusive: 89.1 µM [inhibitor, single point]
50 | COc1cccc(-c2cc3c(=O)n(CCNC(=O)C4CCCCC4)ccn3n2)c1 | inconclusive: 35.5 µM [inhibitor, full curve]
51 | Clc1ccc(-c2nnc([C@H]3CCN(Cc4ccco4)C3)o2)cc1 | inactive
52 | CS(=O)(=O)c1ccc(CN2CCN3C(=O)N(Cc4ccccc4)C[C@H]3C2)cc1 | inactive
53 | CCS(=O)(=O)N1C[C@@H](COC)[C@H](c2nc(C)no2)C1 | inactive
54 | O=C(NCC1Cn2cccc2C(=O)N1Cc1ccccc1)c1ccsc1 (centres undefined) | inconclusive: 100 µM [inhibitor, single point]
55 | COc1ccc(NC(=O)c2c(C)nc3n2CCC(Nc2ccccc2)C3)cn1 (centres undefined) | inactive
56 | CSCc1ccc(C(=O)N2CCCC(O)(CN3CCCC3)C2)o1 (centres undefined) | inconclusive: 100 µM [inhibitor, single point]
57 | O=C(NCc1ccccc1)N1CCC2(CC1)SCC(=O)N2c1ccc(Cl)cc1 | inactive
58 | COc1ccc(F)cc1-c1cccc(C(=O)NCC(=O)NCCc2ccccc2)c1 | inconclusive: 89.1 µM [inhibitor, single point]
59 | Cc1cc(Cl)ccc1S(=O)(=O)N1CCN(C2CCN(CCC(C)C)C2=O)CC1 (centres undefined) | inconclusive: 79.4 µM [inhibitor, partial curve, poor fit]
60 | CCc1nc2c(c(-c3ccc(Cl)cc3)n1)CN(CC1CC1)CC2 | inconclusive: 112 µM [inhibitor, partial curve, poor fit]
61 | O=C(Nc1ccc2c(N3CCCCC3)ncnc2c1)c1cc(F)cc(F)c1 | inactive
62 | COc1ccc(CCNC(=O)c2c(C)noc2-c2ccc(C(C)(C)C)cc2)cc1OC | inconclusive: 50.1 µM [inhibitor, partial curve, poor fit]
63 | CC(C)CNC(=O)C1CCN(Cc2ccccc2-c2ccccc2F)CC1 | inconclusive: 63.1 µM [inhibitor, partial curve, poor fit]
64 | Cc1ccc(CN2C(=O)COC[C@H]2C(=O)Nc2ccc(F)c(F)c2)cc1 | inactive
